Max response and AC50 data for 24 compounds are collected here from PubChem BioAssay (NCATS).

This assay can be described thus: qHTS Assay for Lipid Storage Modulators (AID 1519). Particulars: Drosophila S3 cells, BODIPY lipid droplet/cell ratio, laser cytometry, cells loaded with oleic acid. A digest of the protocol: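 Cells seeded at 5,000 per well were treated with compounds over a concentration series and loaded with oleic acid (400 uM, as added). Lipid droplet fluorescence (488 nm excitation, 500-530 nm channel) was read by laser-scanning cytometry and normalized to 20 uM Triacsin C.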
In general terms: In qHTS, concentration-response curves come from the screen itself.

Where [1] appears, read: measured here: cell count channel max response.
Setting [2] is: measured here: lipid (BODIPY) channel AC50.
The mark [3] stands for this setting: measured here: lipid channel max response.

The other results are listed elsewhere or left out. Shown are side measurements of this screen, not its main read-out; they come without a call. Most of these compounds were active or inconclusive in the main read-out, so they are no random draw. Potencies come from curve fits of mixed quality, noted in brackets.
Tags describe the fitted curve by direction and shape.

Regarding `COCCNc1ccnc(-c2ccccc2C)n1`, the max response runs as follows: under setting [1], 26.2%; under setting [3], 33.9%. The AC50 under setting [2] is 22.4 µM [rising, single point].
On to `COc1ccc(-c2cc(C(F)F)nn2-c2ccc(S(N)(=O)=O)cc2)cc1F`, for which the max response stood at 15.2% under setting [1] and 36.1% under setting [3]. Further, the half-maximal activity concentration (AC50) under setting [2] is 39.8 µM [rising, single point].
`COc1cc(-c2ccc(N=Nc3ccc4c(S(=O)(=O)O)cc(S(=O)(=O)O)c(N)c4c3O)c(OC)c2)ccc1N=Nc1ccc2c(S(=O)(=O)O)cc(S(=O)(=O)O)c(N)c2c1O`: the max response is 83.4% under setting [1] and 115% under setting [3]. Moreover, under setting [2], the AC50 is 12.6 µM [rising, partial curve].
Take `N#CCCn1c(=O)c(-c2cc(F)cc(F)c2)nc2cnc(Nc3ccccc3)nc21`: the max response under setting [1] is 15.7% and the max response under setting [3] is -5.22%. The AC50 under setting [2] is 6.31 µM [rising, single point].
For the compound `O=C(c1cnccn1)N1CCC2(CC1)CN(c1cccc(-c3ccccc3)c1)C2`, the max response reads like this: under setting [1], 4.79%; under setting [3], 11.5%. Moreover, under setting [2], the AC50 was 0.0178 µM [rising, full curve, poor fit].
For `COCCn1c(=O)c(-c2ccc(Cl)cc2)nc2cnc(Oc3ccccc3)nc21`, the max response under setting [1] was 20.4% and the max response under setting [3] worked out at 20.4%. Moreover, the half-maximal activity concentration (AC50) under setting [2] was 0.0178 µM [rising, full curve, poor fit].
With `Cn1c(=O)c(-c2ccccc2)nc2cnc(OCc3ccccc3)nc21`, the max response under setting [1] came out at 13.4% and the max response under setting [3] is 20.1%. Further, the AC50 under setting [2] was 1.41 µM [rising, full curve, poor fit].
In the case of `CCCCCCCC(=O)O[C@H](CC(=O)O)C[N+](C)(C)C`, the max response is 15% under setting [1] and 39.3% under setting [3]. Further, the AC50 under setting [2] is 17.8 µM [rising, single point].
Consider `N#Cc1cccc(NC(=O)N2CC3(CCN(C(=O)c4cnccn4)CC3)C2)c1`, for which the max response came to 27.6% under setting [1] and 37.2% under setting [3]. The AC50 under setting [2] was 3.16 µM [rising, single point].
`O=c1cnc2cnc(OCc3ccccc3)nc2n1Cc1ccc(F)cc1`: the max response by setting is: under setting [1], 18.7%; under setting [3], 30.6%. Besides, the AC50 under setting [2] is 3.16 µM [rising, full curve].
`COc1ccc2[nH]cc(CCNc3nc(-c4ccc(C(=O)N(C)C)cc4)nc4ccccc34)c2c1`: the max response is -6.5% under setting [1] and 3.36% under setting [3]. Further, the AC50 under setting [2] was 0.01 µM [rising, full curve, poor fit].
For the compound `CC1CC2C3CCC4=CC(=O)C=C[C@@]4(C)[C@]3(F)C(O)C[C@]2(C)[C@]1(O)C(=O)COP(=O)(O)O` (some centres not stated), the max response reads like this: under setting [1], 24.1%; under setting [3], 38.1%. In addition, the AC50 under setting [2] is 20 µM [rising, partial curve].
On to `CCCCCCCCCCCCCCC[C@@H](O)[C@@H](N)CO`, for which the max response reads like this: under setting [1], -5.61%; under setting [3], -49.3%. The half-maximal activity concentration (AC50) under setting [2] was 44.7 µM [falling, single point].
As for `O=c1cnc2cnc(Oc3ccccc3)nc2n1CCc1ccccc1`, the max response by setting is: under setting [1], 17.6%; under setting [3], 26.6%. In addition, under setting [2], the AC50 was 0.02 µM [rising, full curve, poor fit].
Turning to `O=c1n(CCCN2CCN(c3cccc(Cl)c3)CC2)nc2ccccn12`, the max response by setting is: under setting [1], 0.868%; under setting [3], 2.02%. The half-maximal activity concentration (AC50) under setting [2] is 1.12 µM [rising, partial curve, poor fit].
Turning to `CC1C(=O)OC2CC34C5CC(C(C)(C)C)C36C(OC(=O)C6O)OC4(C(=O)O5)C21O` (configuration not stated), the max response reads like this: under setting [1], 1.35%; under setting [3], 2.63%. Also, the AC50 under setting [2] was 12.6 µM [rising, single point].
`c1cncc(-c2ccc3ncnc(N4CCNCC4)c3c2)c1`: the max response reads like this: under setting [1], 14.6%; under setting [3], 22.3%. Under setting [2], the AC50 is 0.0447 µM [rising, full curve, poor fit].
On to `CCn1cc(C(=O)O)c(=O)c2cc3c(cc21)OCO3`, for which the max response by setting is: under setting [1], 15.9%; under setting [3], 30%. The concentration at half-maximal activity (AC50) under setting [2] was 11.2 µM [rising, partial curve].
For the compound `O=C(O)c1ccccc1OP(=O)(O)O`, the max response under setting [1] was found to be 27.2% and the max response under setting [3] amounted to 41.2%. For the same compound, the concentration at half-maximal activity (AC50) under setting [2] is 39.8 µM [rising, partial curve, poor fit].
In the case of `O=c1c(CCc2ccccc2)nc2cnc(Nc3ccccc3)nc2n1Cc1cccs1`, the max response by setting is: under setting [1], 22.3%; under setting [3], -85.5%. The AC50 (measured here: cell number channel AC50) was 2.51 µM [rising, partial curve].
On to `NCC1O[C@H](O[C@@H]2C(O)[C@H](O[C@H]3OC(CO)C(O)C(N)C3O)[C@@H](N)C[C@H]2N)[C@@H](N)CC1O` (some centres not stated), for which the max response by setting is: under setting [1], 22.8%; under setting [3], 38.8%. Moreover, the AC50 under setting [2] is 28.2 µM [rising, single point].
For the compound `CN(C)C(=O)c1ccc(-c2nccc(-n3ccnc3)n2)cc1`, the max response runs as follows: under setting [1], 19.1%; under setting [3], 24.1%. Under setting [2], the AC50 was 0.708 µM [rising, full curve, poor fit].
Turning to `CN(C)Cc1ccccc1-c1nccc(NC2CC2)n1`, the max response is 29.3% under setting [1] and 43.9% under setting [3]. Further, the AC50 under setting [2] was 31.6 µM [rising, single point].
For `CCNc1ncc2nc(-c3cc(F)cc(F)c3)c(=O)n(-c3ccccc3)c2n1`, the max response is, setting by setting: under setting [1], 5.51%; under setting [3], 14.3%. The half-maximal activity concentration (AC50) under setting [2] was 1 µM [rising, full curve].

As a reminder, the AC50 is the midpoint of the concentration-response curve, whichever way the signal moves.
